Screen size: about 340,000 compounds; about 6,900 (2%) were called active. Cut-off read from the data, not from the text of the source: active = inhibition above about 30%; inactive = below that, where a call was filed. The entries are a selection whose mix differs from that of the whole data set. The source gives no active or inactive call for entries shown without one.

UniProt P14416, sequence (P14416 whole entry, looked up): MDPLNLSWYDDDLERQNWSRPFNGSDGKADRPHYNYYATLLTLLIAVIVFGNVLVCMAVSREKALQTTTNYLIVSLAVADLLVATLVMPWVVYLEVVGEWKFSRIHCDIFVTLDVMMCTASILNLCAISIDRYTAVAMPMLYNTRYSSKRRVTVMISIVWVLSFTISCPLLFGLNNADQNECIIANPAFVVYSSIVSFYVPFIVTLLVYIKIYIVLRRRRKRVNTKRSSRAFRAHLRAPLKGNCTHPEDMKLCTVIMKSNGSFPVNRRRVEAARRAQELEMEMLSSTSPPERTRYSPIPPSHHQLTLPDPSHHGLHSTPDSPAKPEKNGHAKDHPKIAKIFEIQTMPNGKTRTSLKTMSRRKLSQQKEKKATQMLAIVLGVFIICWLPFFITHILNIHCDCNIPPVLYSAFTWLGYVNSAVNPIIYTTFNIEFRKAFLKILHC

This assay addresses D(2) dopamine receptor (Homo sapiens) (UniProt P14416). Description: HTS Assay for Allosteric Antagonists of the Human D2 Dopamine Receptor: Primary Screen for Antagonists. Note: 0% is about no effect. To be noted: HEK293 TREx D2 cells, calcium flux, dopamine EC80; at 10 µM; stronger effect = higher value. In outline:
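Inhibition of EC80 dopamine-driven calcium flux, recorded kinetically, defines activity here; cells are a tetracycline-induced HEK293 T-REx line expressing force-coupled D2.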
For orientation: A change in cytosolic calcium serves as a functional read-out for many receptors and channels.
`O=C(CSc1nncn2c1cc1sccc12)Nc1ccccc1C(F)(F)F`: the inhibition was determined as 5.59%.
In the case of `O=C(NCCC1=CCCCC1)c1ccc2c(c1)N(Cc1ccc(F)cc1)C(=O)c1ccccc1S2(=O)=O` it was -20.6%; in that of `Cc1c(NC(=O)c2cc(-c3cccc(Cl)c3)on2)c(=O)n(-c2ccccc2)n1C`, 9.19%; in that of `COc1ccc2nc3sc(C(=O)Nc4cc(Cl)c(OC)cc4OC)cc3cc2c1`, -15.2%.
With `CCN1CCN(Cc2c(O)ccc3c(=O)c(Oc4ccccc4Cl)c(C(F)(F)F)oc23)CC1`, the inhibition stood at 17.1%.
In the case of `CCOC(=O)c1c(C)oc2nc(C)nc(NCc3ccc(C)cc3)c12` it was 0.94%; in that of `Cc1cccc(NC(=S)NC2CC3CCC(C2)N3Cc2ccco2)c1` (centres undefined), active: 38.8%; in that of `CCOCCCn1c(=N)c(C(=O)NCc2ccco2)cc2c(=O)n3ccccc3nc21`, -19.2%.
In the case of `COCCCNc1nc2c(-c3ccccc3)nnn2c2ccccc12` it was -13.1%; in that of `Cn1c(CCN2CCN(c3ccccn3)CC2)nc2cc(NC(=O)COc3ccc(Cl)cc3)ccc21`, active: 37.5%; in that of `CC(C)NC(=O)c1ccc(Cn2c(=O)c3cccn3c3cccnc32)cc1`, -1.88%.
On to `COc1ccccc1C1CCN(Cc2cccc([N+](=O)[O-])c2)CC1`, for which the inhibition was active: 110%.
Next, `COc1ccc(CC(=O)NC2CC(=O)N(c3ccc4c(c3)OCCO4)C2)cc1` (centres undefined): 4.36%; `Nc1c(C(=O)Nc2cccc(Cl)c2)sc2nc3c(cc12)CN(Cc1ccccc1)CC3`: 2.02%.
Consider `CCOCCCn1c(=N)c(S(=O)(=O)c2ccc(C)cc2)cc2c(=O)n3ccccc3nc21`, for which the inhibition is -6.42%.
As to `CCOC(=O)c1c(NC(=O)C(C)Sc2cn(CCNC(=O)c3ccc(OC)c(OC)c3)c3ccccc23)sc2c1CCC2` (centres undefined), the inhibition came out at 9.41%.
In the case of `CCn1cc(C(=O)NCc2ccccc2)c(=O)c2cc(S(=O)(=O)N3CCCCC3)ccc21` it was -4.76%; in that of `Cc1ccc(NS(=O)(=O)c2ccc3c4c(cccc24)C(=O)N3)c(C)c1`, 0.721%; in that of `Cc1cccc(-c2nc3c4ccccc4nc(NCc4ccccc4Cl)n3n2)c1`, -9.98%.
In the case of `Cc1ccc(C(NC(=O)Cc2cccs2)C(=O)Nc2ccc(C(C)C)cc2)cc1` (centres undefined) it was 3.65%; in that of `Cc1cc(Nc2cccc(C(F)(F)F)c2)ncn1`, -15.8%; in that of `O=C(COc1ccccc1)N(Cc1cccnc1)c1nc2ccc(Cl)cc2s1`, 18.4%.
In the case of `O=C(Nc1ccc(N2CCC(N3CCCCC3)CC2)c(C(=O)O)c1)c1ccccc1` it was 11%; in that of `CNS(=O)(=O)c1cn(CC(=O)N2CCN(c3ccc(OC)cc3)CC2)cc1S(=O)(=O)NC`, 7.41%; in that of `Cc1cc(C)cc(NC(=O)CN2C(=O)COc3ccc(S(=O)(=O)Nc4ccccc4)cc32)c1`, -3.56%.
On to `Cc1cn(C)c(CC(=O)NCc2ccc(F)cc2)c1C(=O)O`, for which the inhibition is -10.1%.
Next, `COc1ccc2c(c1)c1c(c(=O)n(-c3cccc(C)c3)c(=O)n1CC(=O)Nc1c(C)cc(C)cc1C)n2C`: -4.46%.
In the case of `C=CCn1c(O)c(N=NC(=S)Nc2ccccc2F)c2ccccc21`, the inhibition is active: 68.3%.
As to `CCN1CCN(Cc2c(O)ccc3oc(C)c(C(=O)Nc4ccc(OC)c(Cl)c4)c23)CC1`, the inhibition was -5.46%.
For `CCOC(=O)c1ccccc1NC(=O)CSc1nc2ncccc2o1`, the inhibition amounted to 8.24%.
In the case of `CC1=C(c2ccc(C)cc2)S(=O)(=O)N=C1N1CCN(c2ccccc2)CC1` it was -0.0404%; in that of `Cc1ccc2nc(-c3ccncc3)c(Nc3ccccc3C)n2c1`, 6.44%.
As to `OCCNCCOCCOc1ccccc1-c1ccccc1`, the inhibition is active: 33.1%.
Next, `Cc1ccc(CSC2=Nc3ccccc3C3=NC(CC(=O)NC4CCCCC4)C(=O)N23)c(C)c1` (centres undefined): 8.86%.
In the case of `CCC(C)NC(=O)c1cn(CC)c2ccc(S(=O)(=O)N3CCCCC3)cc2c1=O` (centres undefined) it was 9.2%; in that of `c1ccc(COc2ccc(CN3CCN(c4ccccn4)CC3)cc2)cc1`, active: 75.5%.
For the compound `CSCCC(NS(=O)(=O)c1ccc2c(c1)oc(=O)n2C)C(=O)N1CCN(c2cc(Cl)ccc2C)CC1` (centres undefined), the inhibition amounted to 9.82%.
Next, `CCN(CCCNC(=O)c1cc2cc3cc(OC)ccc3nc2s1)c1cccc(C)c1`: 7.28%.
Turning to `CCC(=O)Oc1c(Sc2ccc(Cl)cc2)c(C)nn1C(C)(C)C`, the inhibition is -3.04%.
In the case of `Cc1cc2c(cc3c(SCc4ccc(Cl)cc4)nnc(C)n32)o1`, the inhibition is -11.7%.
Next, `Cc1cccc(N2CCN(C(=O)c3nn(C)c4c3CSc3ccccc3-4)CC2C)c1` (centres undefined): -17.8%; `C=CCN(c1ccccc1)S(=O)(=O)c1cccc(C(=O)NCC(c2ccc(OC)cc2)N2CCCCC2)c1` (centres undefined): active: 54.7%; `COc1cccc(CNC(=O)CN2C(=O)CSc3ccc(S(=O)(=O)N(C)C)cc32)c1`: -6.32%.
In the case of `Cc1ccc(-c2nc3sccn3c2Nc2ccccc2C)cc1` it was -8.78%; in that of `CC1CCN(C(=O)c2cnn(-c3ccc(Cl)cc3)c2C2CCN(C(=O)OC(C)(C)C)CC2)CC1`, 3.78%; in that of `Cc1c(C(=O)OC2CCCC2)[nH]c2c1C(=O)CC(c1ccc(C(C)(C)C)cc1)C2` (centres undefined), 1.99%.
In the case of `CC(C)(C)C1CCc2c(sc(NC(=O)c3cccc(Cl)c3)c2C(N)=O)C1` (centres undefined), the inhibition was -6.8%.
In the case of `COc1ccccc1-c1cc(NC(=O)COc2ccccc2Cl)n(-c2ccccc2)n1` it was -7.87%.
Next, `Cc1ccc(-c2[nH]c3ccccc3c2SCCNC(=O)c2ccc(S(=O)(=O)N3CCOCC3)cc2)cc1`: -1.18%; `Cc1cccc2c1-c1sc(C(=O)NCCc3ccc(Cl)cc3)cc1CO2`: 5.66%; `Cc1ccccc1OCCSc1nc(C)c(Cc2ccccc2)c(=O)[nH]1`: 8.06%.
On to `COc1ccc(-c2nn(C)c3sc(C(=O)N4CCN(c5ccccc5F)CC4)cc23)cc1OC`, for which the inhibition was -21.3%.
In the case of `Oc1ccc(CN2CCc3ccccc3C2)c2cccnc12` it was active: 65.2%; in that of `COc1cccc(CNC(=O)C(C)n2ccc3cc(S(=O)(=O)N4CCCCCC4)ccc32)c1` (centres undefined), -6.69%; in that of `Cc1ccc(S(=O)(=O)N(CC(O)CN2C(=O)NC(C)(C)C2=O)c2cccc([N+](=O)[O-])c2)cc1` (centres undefined), active: 30.4%.
Next, `CCN(C(=O)C1CCN(S(=O)(=O)c2ccc3c(c2)oc(=O)n3C)CC1)c1cccc(C)c1`: active: 38.9%; `Cc1ccc(C)c(NC(=O)C2CCN(c3nn4c(=O)cc(C)nc4s3)CC2)c1`: 7%; `CCN1CCN(Cc2nc3cc(NC(=O)c4ccccc4[N+](=O)[O-])ccc3n2CC)CC1`: 4.52%.
As to `O=C(Nc1cccc(F)c1)c1ccc2c(c1)OCO2`, the inhibition is active: 30.8%.
Regarding `COc1ccc(NC(=O)c2ccc3c(c2)c(C)c(C)n3Cc2ccc(F)cc2)cc1`, the inhibition stood at 6.83%.
In the case of `CC1CCC(N2CC(=O)N(C3CCCC3)C(c3ccc(Cl)cc3)C2=O)CC1` (centres undefined) it was 17.3%; in that of `Cc1ccc(C)c(CN2C(=O)c3ccccc3Sc3ccc(C(=O)NCc4cccs4)cc32)c1`, -14.4%; in that of `COc1ccc(NC(=O)c2c(N)c(C(=O)c3ccc(C)cc3)n3ccccc23)cc1OC`, 3.87%.
Next, `Cc1ccc(Cl)cc1N1CCN(C(=O)c2cn(C)c3ccc(S(=O)(=O)N(C)C4CCCCC4)cc3c2=O)CC1`: 4.47%; `COc1ccc(CNC(=O)CCc2nc3cccnc3n2Cc2ccccc2)cc1`: -1.03%; `Cc1cccc(N2CCN(C(=O)c3c(C)oc4nc(C)nc(N5CCCC5)c34)CC2C)c1` (centres undefined): 7.79%.
In the case of `CC(=O)Nc1ccc(NC(=O)C(Cc2ccccc2)N2Cc3ccccc3C2=O)cc1` (centres undefined) it was -5.15%; in that of `Cc1ccc(C)c(N2CCN(CCCc3ccccc3)CC2)c1`, active: 51.3%.
Take `Cc1ccc(NC(=O)Cn2c(=O)n(CCC(=O)NCCc3ccccc3)c(=O)c3ccccc32)cc1`: the inhibition came out at 9.81%.
Next, `Cc1ccc(-n2ncc3c(Nc4cccc(C)c4)ncnc32)cc1`: 10.8%; `O=C(Nc1c(C(=O)N2CCC(N3CCCCC3)CC2)oc2ccccc12)c1c(F)cccc1F`: 14.2%; `Cn1cc(S(=O)(=O)c2ccccc2)c(=O)c2cc(F)c(N3CCN(c4ccc(F)cc4)CC3)cc21`: -6.54%.
Next, `Cc1ccc(-c2nnc(Nc3ccc(Cl)cc3)c3ccccc23)cc1S(=O)(=O)N1CCOCC1`: 1.59%; `CN(C)S(=O)(=O)c1ccc2c(c1)N(CC(=O)N1CCCCC1)CCS2`: 8.49%; `CC(C)(C)C(=O)NC(=S)NNC(=O)C(c1ccccc1)c1ccccc1`: active: 75.3%.
`O=C(C1CCN(c2nc3ccccc3[nH]2)CC1)N1CCN(c2ccccc2)CC1`: the inhibition was 18.7%.
In the case of `COc1ccccc1NC(=O)CCn1nc(-c2ccccc2)c2ccccc2c1=O` it was -6.77%; in that of `CN(C(=O)c1ccc2c(c1)N(Cc1ccccc1F)C(=O)c1ccccc1S2)C1CCCCC1`, 11%; in that of `CCCN1CCN(CCCNC(=O)c2ccc3c(c2)sc2nc(-c4ccc(C)cc4)cn23)CC1`, 10.5%.
Next, `Cc1cccc(NCc2nnc3n2CCCCC3)c1C`: 11.9%; `COc1ccccc1N1CCN(c2nc3ccc(C)cc3nc2-n2nc(C)cc2C)CC1`: -1.77%; `COc1ccccc1-c1oc2ccccc2c1C#CC(C)(C)O`: active: 52.4%.
Next, `Cc1cccc(-c2noc(-c3ccc(NCC4CCCO4)c([N+](=O)[O-])c3)n2)c1` (centres undefined): 14%; `CCOC(=O)c1c(C)n(-c2ccccc2)c2ccc(OC(=O)c3ccc(OCC)c(OCC)c3)cc12`: -14%; `O=C1N(CN2CCN(c3cccc(Cl)c3)CC2)c2ccccc2C12OCCCO2`: active: 33.4%.
Consider `COc1ccc(NC(=O)c2cc3c([nH]c2=O)CC(c2ccccc2)CC3=O)cc1` (centres undefined), for which the inhibition is 16.7%.
In the case of `CCCOc1ccc(OC(=O)c2c(-c3ccccc3Cl)noc2C)cc1` it was -1.22%.
Next, `COc1ccc(NC(=O)Cn2c(=O)n(-c3ccc(CC(=O)NCC4CCCO4)cc3)c(=O)c3ccccc32)c(OC)c1` (centres undefined): 12.3%; `COc1ccc(C2=Nn3c(nc4sc(C(=O)Nc5cccc(C)c5)c(C)c4c3=O)SC2)cc1`: 15.8%.
Next, `COc1ccc(NC(=O)c2ccc3c(c2)c(C)c(C)n3Cc2ccc(F)cc2)c(OC)c1`: 7.59%; `COc1cccc(CN2C(=O)c3ccccc3Sc3ccc(C(=O)NCCc4ccc(Cl)cc4)cc32)c1`: -5.98%.
Consider `COc1ccc(-c2nn3c(-c4ccc(C)cc4)nnc3c3ccccc23)cc1`, for which the inhibition is -1.44%.
With `CCc1ccc(OCC(=O)N(Cc2ccco2)Cc2ccco2)cc1`, the inhibition came to 3.85%.
For the compound `COc1ccc(-c2nn(-c3ccccc3C)cc2CNCc2cccnc2)cc1F`, the inhibition was active: 39.4%.

A word on the inhibition: it is the relative decrease from the control value, in per cent.

Source of the values: PubChem BioAssay AID485344 (National Center for Advancing Translational Sciences (NCATS), 2010).
